In ChEMBL document CHEMBL4888484, “Replenishing the malaria drug discovery pipeline: Screening and hit evaluation of the MMV Hit Generation Library 1 (HGL1) against asexual blood stage Plasmodium falciparum ,using a nano luciferase reporter read-out” (2022):
The campaign covered roughly 4,800 compounds. About 410 (8.5%) showed an effect of 50% or more. Some of the results follow.

test system: Plasmodium falciparum; assay: Confirmatory screen in NF54 pLDH assay, in single point, at 2uM, 72h; format: functional, Erythrocyte; settings: timepoint 72 hour

Structure (SMILES)	% Inhibition [%]
CC(C(=O)Nc1nccs1)N1CCCC(c2ccn[nH]2)C1 (configuration not stated)	45
CC(=O)N(Cc1ccc2c(c1)OCO2)c1cccc(-c2nc3ccccc3o2)c1	-4
CC(=O)c1cccc(NC(=O)Cc2c(C)nc3nc(C4CCCCC4)nn3c2C)c1	10
CCCc1cc(NC(=O)N(CC)CCc2nccs2)n(C)n1	2
O=C(CCS(=O)(=O)c1ccc2ccccc2c1)Nc1ncn(Cc2c(F)cccc2Cl)n1	4
CCCC[C@H](Oc1ccc(C(C)(C)CC)cc1C(C)(C)CC)C(=O)Nc1ccc(NC(=O)C(F)(F)C(F)(F)C(F)(F)F)c(O)c1	4
O=C(O)CCNC(=O)c1ccc(NC(=O)c2cnc(-c3ccsc3)s2)cc1	7
CC[C@H]1C[C@@H]1CNC(=O)c1cccc(NC(=O)c2ccco2)c1	-2
Cc1nnc([C@@H](NC(=O)Nc2ccccc2F)C(C)C)[nH]1	4
CC(C)CC(=O)N=c1nc(S)ss1	10
COc1ccc(Cl)cc1NC(=O)Cc1c(C)nc2nc(-c3ccccc3C)nn2c1C	6
COc1ccc(C(=O)CN2C=CCC=C2c2nc(-c3ccc(Cl)cc3)cs2)cc1	73
CN1C(=O)N(c2cc(Cl)cc(Cl)c2)C(=O)[C@]12CN(c1ccc(C(=O)O)cn1)C[C@H]2c1ccc(C#N)cc1	15
COc1ccc(C2=NC3(CCN(Cc4ccccc4)CC3)N[C@H](c3cc(Cl)ccc3O)C2)cc1	9
C[C@H]1CCCN(c2nc(-c3ccccn3)nc3ccccc23)C1	98
CC(C)N1CCO[C@H](C(=O)Nc2c[nH]nc2-c2ccccc2)C1	-3
CCNC(=O)NCCOC(=O)c1cccc(C)c1Cl	13
CCc1c([C@H](C)S(=O)(=O)c2ccccc2)[nH]c(=O)n1Cc1cccs1	-7
CCOC(=O)NC(c1ccccc1F)C1CCCCCCC1=O (configuration not stated)	2
Cc1ccccc1Cn1nc2ccc(S(=O)(=O)N3CCOCC3)cn2c1=O	16
Cc1ccc(C)c(/C=C/c2nnc(C)o2)c1	-6
C[C@@H](Cn1c(=O)[nH]c2ccccc2c1=O)N(C)c1ccccc1	5
CCOc1ccc(NC2=NC(=O)[C@@H](C#N)C3(CCN(Cc4ccccc4)CC3)N2)cc1	9
Cc1c(CN(C)C(=O)Cn2ncc(Br)c2C)cnn1C	4
CC(C)(C)[C@@H](O)CCNC(=O)c1ccco1	9
O[C@H](COCc1ccccc1)CN(Cc1c(-c2ccccc2F)noc1N1CCOCC1)C1CC1	8

Structure (SMILES)	% Inhibition [%]
CCc1ccc(C(=O)N2CCCN(c3nc(C4CCOCC4)nc4c3cnn4-c3ccccc3)CC2)cc1	-7
O=C(Nc1cc(-c2onc3c2CCCC3)cc(C(F)(F)F)c1)c1cncc(Br)c1	95
CC(=O)N(C)CC(=O)Nc1ccccc1NCC1CCCCC1	12
O=C(Nc1ccc(OC(F)F)cc1)c1cc(C2CC2)nc2c1c(C1CC1)nn2-c1ccccc1	-5
CCn1cc([C@H](CC(=O)N2CCN(Cc3ccc4c(c3)OCO4)CC2)c2cccc(OC)c2)c2ccccc21	2
C#Cc1cc(C(F)(F)F)cc(C#N)c1N	8
C[C@H]1CN(C(=O)c2cc(Cl)cc(Br)c2F)CCS1(=O)=O	8
CC(=O)Nc1cc(C)c(S(=O)(=O)O)cc1C	11
O=C(C[C@H]1CCN(C(=O)C2CCC2)C1)NCc1ccccc1	14
CN1CCC2(CC1)Nc1ccccc1-c1nc(-c3ccco3)nn12	6
Cc1nc2n(Cc3ccc(Cl)cc3)c3ccccc3n2n1	5
Cc1ccc([C@H]2C=NN(c3ccc(Br)cc3)C2=O)cc1	22
CC(C)c1nc(CN(C)[C@@H](C)C(=O)Nc2nccs2)cs1	23
O=S(=O)(c1ccco1)N1CC[C@H](Oc2ccccc2)C1	10
O=C(c1cc(-c2ccccc2)n[nH]1)N1CCC(N2CCc3sccc3C2)CC1	27
c1ccc(N2CCN(CCN[C@H]3CCc4cc5c(cc43)CCC5)CC2)cc1	9
CCn1nccc1C(=O)N1CC[C@H](CC(=O)N(C)Cc2ccccc2)C1	-2
CC(C)OC(=O)N(CCOC(=O)Nc1cccc(Cl)c1)CCOC(=O)Nc1cccc(Cl)c1	-20
COc1ccc(N[C@@H](C)C(=O)Nc2nc(C)cs2)c(OC)c1	5
CC[n+]1c(/C=C/N(C)c2ccccc2)oc2ccccc21	76
CCOCCN(C)Cc1n[nH]c(C)c1C(=O)OCC	-2
Cc1ccc(NC(=O)CN2N=C(C(=O)Nc3ccccc3)CCC2=O)cc1	-10
COc1ccccc1C(=O)Nc1ccc(N2CCCN(C)CC2)cc1C(=O)O	-6
Nc1ccc(Cl)c(NC2=NN(c3c(Cl)cc(Cl)cc3Cl)C(=O)C2)c1	7
O=C1c2[nH]nc(-c3cccs3)c2[C@@H](c2cccc(O)c2)N1c1nccs1	5
CCOC(=O)c1cc(-c2ccccc2)nnc1Oc1ccccc1	13

Structure (SMILES)	% Inhibition [%]
COc1ccc(C(=O)N(C(=O)c2ccc(OC)cc2)c2c3c(nc4ccccc24)CCCC3)cc1	61
Cc1nn(C(F)F)c(C)c1S(=O)(=O)Nc1ncn(Cc2ccccc2Cl)n1	5
COC(=O)CN(C(C)C)S(=O)(=O)c1cc(Cl)cc(Cl)c1	12
Cc1ccc[n+](Cc2ccc3ccccc3n2)c1	53
COc1ccc([C@@H]2CN(S(=O)(=O)c3ccc(OC)cc3)CCN2C)cc1	12
COC(=O)CN(CC(=O)Nc1ccc(C)c(C)c1)Cc1cnn(C)c1	-5
Nc1nc(-c2ccc(N3CCCC3)cc2)cs1	-11
CCCCN1CCN(C(=O)CN2CCN(Cc3ccc(F)cc3Cl)C2=O)CC1	1
CCCn1c(C)ccc(-c2noc(CCC(=O)NCc3cccnc3)n2)c1=O	1
O=C(NCC1CCOCC1)c1ccc2n[nH]c(=O)n2c1	6
Cc1cc(C)cc(-c2nnc(NC(=O)N3CCC[C@@H]3CO)s2)c1	2
CCCn1c(C(=O)N2CCOCC2)cc2sccc21	5
COc1ccc(-c2nccn3cc(C(=O)N4CCN(c5cccc(OC)c5)CC4)nc23)cc1	-1
C=CCS(=O)(=O)NC(=O)c1cc(C)c(C)cc1Cl	7
O=C(CC(c1ccccc1)c1ccccc1)N1CC(=O)N2CCc3ccccc3[C@@H]2C1	6
CC1(C)CCC[C@@H]1NS(=O)(=O)c1ccc(C(=O)N2CCOCC2)cc1	8
O=C(CC1CCOCC1)N1CCN(C(=O)c2ccco2)CC1	-18
CN(C)C(=O)c1cc2c(s1)CC[C@H](C(=O)NCCN1CCOCC1)C2	15
Cn1cccc1CNC1CCCCCC1C(N)=O (configuration not stated)	0
C[C@@H]1CN(C(=O)NCCc2ccc(C(F)(F)F)cn2)C[C@H](C)O1	6
O=C(NCc1ccc2c(c1)OCO2)c1cccc2c1C(=O)N(C1CCCCC1)C2	-15
O=C1C2ON(c3ccccc3)C(c3ccncc3)C2C(=O)N1c1ccc2ccccc2c1 (configuration not stated)	8
C#CCOc1ccc(CCNC(=O)N(C)c2c(C)noc2C)cc1	2
Brc1ccc2c(c1)C1CCCCC1N2 (configuration not stated)	9
CC[C@@H](CN(C)Cc1ccccc1)NC(=O)C1CCN(c2nc3cccnc3n(CC)c2=O)CC1	28
O=C(Nc1nnc(C2CC2)s1)[C@@H]1Cc2ccccc2O1	5

Structure (SMILES)	% Inhibition [%]
CCN1C(=O)[C@@]2(CC(=O)Nc3c2c(C)nn3-c2ncnc3nc[nH]c23)c2cc(C)ccc21	11
O=C(Oc1cccc2cccnc12)c1ccc(-c2ccccc2)cc1	9
CC(C)C1(C)CC(=O)N(C(C(=O)O)c2ccccc2)C1=O (configuration not stated)	-6
Cc1ccccc1C(=O)NCC(=O)NCCc1c[nH]c2ccccc12	-9
Cc1nn2c(C(F)F)cc(-c3ccc4c(c3)OCO4)nc2c1Cl	4
Cc1ccccc1C(=O)Cc1ncc[nH]1	53
O=C(Nc1ccc(Cl)c(Cl)c1)Nc1ccc(Cl)cc1NC(=O)Nc1ccc(Cl)c(Cl)c1	65
CC[C@H]1CN2C=NC(N3CCN(C(=O)Nc4cc(F)cc(F)c4)CC3)=CC2=N1	46
Cc1ccccc1S(=O)(=O)c1cc2cc(Br)cc(Br)c2nc1N	9
C=CCNC(=O)c1cc(Br)cc(Br)c1OC	13
CCOCCc1nc(-c2ccccn2)c(CCOCC)nc1-c1ccccn1	8
C=CCNC(=NC)NC1CCN(c2cc(OC)cc(OC)c2)CC1	7
O=C(c1ccccc1COC1CCOCC1)N1CCC[C@H](c2nnc[nH]2)C1	5
CC(C)N(CC(C)(C)O)C(=O)Nc1ccc(C(N)=O)c(Cl)c1	10
COc1ccc(CCNC(=O)c2nnc(Cc3c(F)cccc3Cl)o2)cc1OC	-3
CC12CN(S(=O)(=O)c3ccc4c(c3)OCCO4)C3(C(=O)OCc4ccccc4)CC1CCC23C (configuration not stated)	64
O=C(c1cccs1)N1CCN(C2CCCCCC2)CC1	8
O=C(CCc1nc2cccnc2[nH]1)NCCN1CCOCC1	14
CCCC1CCC(c2ccc(-c3noc(-c4ccc(O)c(F)c4)n3)cc2)CC1 (configuration not stated)	4
O=C(Cc1c[nH]c2ccccc12)N[C@H]1CCS(=O)(=O)C1	-2
O=C1C2CC2C(=O)N1Cc1ccccc1 (configuration not stated)	10
Cn1cc(C(=O)NCC2CCN(S(=O)(=O)c3cccs3)CC2)cn1	2
COc1ccc(C(=O)N2CCC3(CC2)C[C@@H](O)CCO3)cc1	13
Nc1cc2c(cc1C1=Nc3ccccc3C(c3ccccc3)(c3ccccc3)N1)OCO2	10
